About 9,900 (2.8%) of roughly 350,000 compounds were called active. Inconclusive results, whose numbers are uncertain, are shown with a selection of clear calls. Calls come from the whole dose curve; as a rule, active = well fitted activation curve with a large enough effect; inconclusive = small, poorly fitted or top-dose-only effect; inactive = no such curve, though single readings can be large or run the other way. Potencies of inconclusive entries are left out as doubtful fits.
Test: A quantitative high throughput screen for small molecules that induce DNA re-replication in MCF 10a normal breast cells. For activity, positive = re-replication: % of control where 0% means no effect. Note: nearly all actives have a fitted effect of over 50% in size.
Settings: MCF 10A DNA re-replication, Hoechst nuclear intensity, 48 h; activity, positive = re-replication: at 46.1 µM (top of the series)
For `CCOC(=O)c1c(NC(=O)c2ccc(C)cc2)sc2c1CC(C)(C)OC2`, the Potency was inconclusive [activator, single point].
For `CCN(CC)c1ccc(-c2nc3cnccc3n2C)cc1`, the Potency was inconclusive [activator, single point].
In the case of `Cc1ccc(Oc2nnc(-c3cccs3)c3ccccc23)cc1C`, the Potency is reported as inconclusive [activator, single point].
With `O=C1NC(=Nc2ccccc2Cl)S/C1=C\c1cccc([N+](=O)[O-])c1` the Potency was inconclusive [activator, single point].
In the case of `CC1CN(CC(=O)Nc2nc3ccccc3s2)CC(C)O1` (stereo not drawn), the Potency is reported as inconclusive [activator, partial curve, poor fit].
For `O=C(C#Cc1ccccc1)c1cccc([N+](=O)[O-])c1`, the Potency was active: 2.91 µM.
In the case of `CN1CCN(CCC=C2c3ccccc3Sc3ccc(S(=O)(=O)N(C)C)cc32)CC1`, the Potency is reported as inconclusive [activator, single point].
For `CCCCc1cc(=O)oc2cc(C)cc(O)c12`, the Potency was inconclusive [activator, full curve].
With `O=C(N1CCN(c2ccccc2F)CC1)C12CC3CC(CC(C3)C1)C2` the Potency was inconclusive [activator, single point].
In the case of `Cn1cccc1/C=N/NC(=O)CNc1ccc2ccccc2c1`, the Potency is reported as inconclusive [activator, single point].
For `CSc1nc(NCCOCCO)c2sc3nc(-c4ccco4)c4c(c3c2n1)CCC4`, the Potency was inconclusive [activator, full curve, poor fit].
For `Cc1ccc(C(=O)O/N=C(\N)c2ccccn2)cc1`, the “activity, positive = re-replication” value was inactive: 1.11%.
For `OC(CNc1nc(C(F)(F)F)nc2ccccc12)c1ccccc1` (stereo not drawn), the “activity, positive = re-replication” value was inactive: -2.19%.
For `CC(C)c1ccc(S(=O)(=O)/N=C2\C=C(NS(=O)(=O)c3ccccc3)C(=O)c3ccccc32)cc1`, the Potency was inconclusive [activator, single point].
For `Cc1ccc(S(=O)(=O)CC(=O)Nc2nc3ccccc3s2)cc1`, the “activity, positive = re-replication” value was inactive: 24.6%.
For `CC(C)(C)c1ccc(OCCOc2ccc(C(C)(C)C)cc2NC=O)c(NC=O)c1`, the Potency was inconclusive [activator, single point].
With `COc1ccc(N=C2S/C(=C\c3ccc(Cl)c([N+](=O)[O-])c3)C(=O)N2CCN(C)C)cc1` the Potency was inconclusive [activator, single point].
With `O=C(c1ccccc1Br)N1CCCC(c2nc(-c3cccs3)no2)C1` (stereo not drawn) the Potency was inconclusive [activator, partial curve, poor fit].
For `Cc1nc(-c2ccccc2)sc1C1(C)CC(c2c(Cl)cccc2Cl)=NO1` (stereo not drawn), the Potency was inconclusive [activator, single point].
With `NC1=NC(c2cn(-c3ccccc3)nc2-c2cccs2)n2c(nc3ccccc32)N1` (stereo not drawn) the Potency was inconclusive [activator, single point].
With `CCCCOc1ccc(C(=O)N/C(=C/c2cccc([N+](=O)[O-])c2)C(=O)O)cc1` the Potency was inconclusive [activator, partial curve, poor fit].
With `CCOC(=O)C(=CNCC(=O)O)C(=O)OCC` the Potency was inconclusive [activator, full curve, poor fit].
With `COc1ccc(C2/C=C\CN(C(=O)c3ccc(C)cc3)CC(=O)N2Cc2ccc(F)cc2)cc1` (stereo not drawn) the Potency was inconclusive [activator, single point].
In the case of `O=C(C1=C[C@@H](c2ccc(C(F)(F)F)cc2)C[C@@H](OCc2ccc(CO)cc2)O1)N1CCN(Cc2ccc3c(c2)OCO3)CC1`, the Potency is reported as inconclusive [activator, single point].
In the case of `CC1CCCCN1C(=O)COC(=O)CSc1ccc(C(N)=O)cc1[N+](=O)[O-]` (stereo not drawn), the Potency is reported as inconclusive [activator, single point].
For `Cc1cc(-c2c(C)[nH]n(-c3ccccc3)c2=O)n[nH]1`, the Potency was inconclusive [activator, single point].
In the case of `C/C(=N/NC(=O)c1ccc(C)s1)c1cccc(NC(=O)c2ccoc2C)c1`, the “activity, positive = re-replication” value is reported as inactive: -9.51%.
For `O=C(Nc1ccc(Cl)cn1)c1ccccc1[N+](=O)[O-]`, the Potency was inconclusive [activator, partial curve, poor fit].
In the case of `CCOc1ccc(/C=N/NC(=O)c2c(C)n(C)c3ccc(OC)cc23)cc1`, the Potency is reported as active: 11.6 µM.
For `Cc1cc(O)c(C(C)C)cc1NS(=O)(=O)c1ccccc1`, the Potency was inconclusive [activator, single point].
For `O=C(COc1ccccc1Cl)Nc1ccccc1C(=O)N1CCCCC1`, the “activity, positive = re-replication” value was inactive: 13.2%.
With `O=C(c1cnn(C(=O)c2ccco2)c1)c1cc(F)ccc1O` the “activity, positive = re-replication” value was inactive: -2.99%.
In the case of `CCN(CC(=O)Nc1ccc2c(c1)OCCO2)C(=O)/C=C/c1cccc(OC)c1OC`, the “activity, positive = re-replication” value is reported as inactive: -0.803%.
For `O=C(CSc1ncc(-c2ccc(F)cc2)[nH]1)NCc1ccco1`, the Potency was inconclusive [activator, single point].
In the case of `COc1ccc(S(=O)(=O)NCc2ccccn2)cc1NC(=O)c1ccc(C)cc1`, the Potency is reported as inconclusive [activator, partial curve, poor fit].
For `O=C1Nc2ccccc2N(O)N1c1ccc(S(=O)(=O)N2CCCCCC2)cc1`, the Potency was inconclusive [activator, partial curve, poor fit].
With `O=C(Nc1ccc(Oc2c(F)c(F)c(F)c(F)c2F)cc1)OC1CCN2Cc3ccccc3N=C12` (stereo not drawn) the Potency was active: 13 µM.
For `Cc1ccc(N(CC(O)CN2C(=O)NC(C)(C)C2=O)S(=O)(=O)c2ccc([N+](=O)[O-])cc2)cc1` (stereo not drawn), the “activity, positive = re-replication” value was inactive: 14.1%.
In the case of `C[C@H](NCCc1ccc(O)cc1)[C@@H](O)c1ccc(O)cc1`, the “activity, positive = re-replication” value is reported as inactive: -1.16%.
In the case of `COc1cc(C2CC(c3ccccc3)=NN2c2ccccc2)ccc1OCC(=O)O` (stereo not drawn), the Potency is reported as active: 4.11 µM.
With `CCN(CC(=O)NC1CCS(=O)(=O)C1)S(=O)(=O)c1c(C)c(C)cc(C)c1C` (stereo not drawn) the “activity, positive = re-replication” value was inactive: -3.79%.
With `CCCC(=O)Nc1ccc2nn(-c3ccc(OC)cc3)nc2c1` the Potency was inconclusive [activator, single point].
With `NC(=Nc1ccccc1)NC(=O)c1nc(Cl)c(N)nc1N` the Potency was inconclusive [activator, partial curve, poor fit].
With `CC(C)(C)SCCSC1=CC(=O)CC(c2ccccc2)C1` (stereo not drawn) the Potency was inconclusive [activator, single point].
With `Cc1nc2ccc(NC(=O)c3ccc(Cl)c([N+](=O)[O-])c3)cc2s1` the Potency was inconclusive [activator, single point].
For `COc1ccc(Cc2nnc3n2N=C(c2cc4ccccc4o2)CS3)cc1OC`, the Potency was inconclusive [activator, partial curve].
In the case of `CCC1CCCCN1C(=O)COC(=O)c1cc(=O)[nH]c2ccccc12` (stereo not drawn), the “activity, positive = re-replication” value is reported as inactive: -0.015%.
For `Cc1nc2ccccc2n1-c1ccccc1`, the “activity, positive = re-replication” value was inactive: 1.08%.
In the case of `O=C(c1ccccc1)C1CC=CCC1C(=O)c1ccccc1` (stereo not drawn), the Potency is reported as inconclusive [activator, partial curve, poor fit].
With `Cc1cccc(NC(=O)CNC(=O)c2cccc(-n3cccc3)c2)c1C` the Potency was inconclusive [activator, full curve, poor fit].
For `O=C(COc1ccc(Cc2ccccc2)cc1)c1ccc(F)cc1`, the Potency was inconclusive [activator, single point].
For `CCOc1ccc(NC(=O)c2ccco2)cc1`, the “activity, positive = re-replication” value was inactive: 5.66%.
With `CC1C(=O)N(Cc2cccc(F)c2)c2ccccc2N1C(=O)c1ccccc1` (stereo not drawn) the Potency was inconclusive [activator, partial curve, poor fit].
In the case of `O=C(CCCn1c(SCc2cccc(F)c2)nc2ccccc2c1=O)NCC1CCCO1` (stereo not drawn), the “activity, positive = re-replication” value is reported as inactive: -2.96%.
In the case of `O=C(Nc1ccc(N2CCOCC2)cc1)c1ccc(Cl)nc1`, the Potency is reported as inconclusive [activator, partial curve, poor fit].
In the case of `CCCCc1ccc(-n2c(Cc3cccs3)n[nH]c2=S)cc1`, the Potency is reported as inconclusive [activator, full curve, poor fit].
With `CC(C)Oc1ccc(C(=O)/C=C2/C(=O)Nc3ccccc32)cc1` the Potency was inconclusive [activator, single point].
For `O=C(Nc1nnc(SCc2ccc(Cl)cc2)s1)c1cnccn1`, the “activity, positive = re-replication” value was inactive: 26.5%.
With `CNc1n[nH]c(=S)s1` the “activity, positive = re-replication” value was inactive: -1.66%.
For `NC(=O)c1cc(N=Nc2c(N)[nH]n(-c3c(Cl)cc(Cl)cc3Cl)c2=O)ccc1Cl`, the Potency was inconclusive [activator, partial curve, poor fit].
With `CC1(C)CC(=O)C(C=Nc2cc(C(=O)c3ccccc3)ccc2N)=C(O)C1` the Potency was inconclusive [activator, single point].
In the case of `CC(=O)Nc1cc2nn(-c3ccccc3)nc2cc1Cl`, the Potency is reported as inconclusive [activator, partial curve, poor fit].
In the case of `CCc1nc2ccccc2n1CCc1ccccc1`, the Potency is reported as inconclusive [activator, single point].
For `COCC(C)NC(=O)c1ccc(N(C)C)cc1` (stereo not drawn), the “activity, positive = re-replication” value was inactive: 14.1%.
In the case of `N#Cc1c(N2CCCC2)nc(N)c2c(N)nc(N3CCCC3)cc12`, the Potency is reported as inconclusive [activator, single point].
With `CCOc1ccc(Nc2nc(Cl)nc(N3CCN(c4ccc(OC)cc4)CC3)n2)cc1` the Potency was inconclusive [activator, single point].
In the case of `COc1ccc(CN(C)S(=O)(=O)c2nnc(NC(=O)c3cccc(OC)c3)s2)cc1`, the Potency is reported as inconclusive [activator, partial curve, poor fit].
For `O=C(OCC(=O)N1CCCCC1)c1ccc2ccccc2n1`, the “activity, positive = re-replication” value was inactive: -0.245%.
Potency is the fitted concentration of half-maximal effect; tags give direction and shape of the fitted curve.
